Test results as given in the supplement of paper PMC10369915.
This is one part of the list. Rule as the data show it: active = 3.2 or more and inactive = the rest. The signal is at background level for most entries.

How the values were obtained:
Assay in all cases: enrichment score (SH2-bound / input frequency) (ratio); bacterial display of known human phosphotyrosine sites (pTyr-Var adds point mutants) read by sequencing; higher = stronger binding; tyrosines were phosphorylated by kinases first
Settings in all cases: peptide library: pTyr-Var
[1] = target: SHP2 C-SH2 domain E139D
[2] = target: SHP2 C-SH2 domain wild-type
[3] = target: SHP2 N-SH2 domain L43F
[4] = target: SHP2 N-SH2 domain T42A
[5] = target: SHP2 N-SH2 domain T52S
[6] = target: SHP2 N-SH2 domain wild-type

Measured: enrichment score
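Also: displayed peptides selected on beads carrying the immobilized SH2 domain, with library peptides lacking any tyrosine serving as negative controls.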

B1: TEK_Y1108_T1106M (peptide)
chain: VNTMLYEKFTY
inactive: [1] 1.48 | [2] 1.18 | [3] 1.13 | [4] 1.14 | [5] 1.19 | [6] 1.36

B2: TEK_Y1108_YF (peptide)
chain: VNTTLYEKFTF
inactive: [1] 1.03 | [2] 0.973 | [3] 1.17 | [4] 1.21 | [5] 1.1 | [6] 0.817

B3: TEK_Y897_Y897F (peptide)
chain: CEHRGFLYLAI
inactive: [1] 0.714 | [2] 1.01 | [3] 0.911 | [4] 0.935 | [5] 1.06 | [6] 0.915

B4: TEK_Y897_Y897F_YF (peptide)
chain: CEHRGFLFLAI
inactive: [1] 1.36 | [2] 1.28 | [3] 1.08 | [4] 1.21 | [5] 1.18 | [6] 1.02

B5: TEK_Y897_Y897H_YF (peptide)
chain: CEHRGHLFLAI
inactive: [1] 1.27 | [2] 1.14 | [3] 1.12 | [4] 1.18 | [5] 1.07 | [6] 1.25

B6: TEK_Y897_Y897S_YF (peptide)
chain: CEHRGSLFLAI
inactive: [1] 0.934 | [2] 1.09 | [3] 0.904 | [4] 0.865 | [5] 1.51 | [6] 1.25

B7: TEK_Y899_Y897F (peptide)
chain: HRGFLYLAIEY
inactive: [1] 0.718 | [2] 0.736 | [3] 0.669 | [4] 0.672 | [5] 0.454 | [6] 0.895

B8: TEK_Y899_Y897H (peptide)
chain: HRGHLYLAIEY
inactive: [1] 1.4 | [2] 0.729 | [3] 0.465 | [4] 1.06 | [5] 1.53 | [6] 1.96

B9: TEK_Y899_Y897H_YF (peptide)
chain: HRGHLYLAIEF
inactive: [1] 0.422 | [2] 1.02 | [3] 0.622 | [4] 0.423 | [5] 0.58 | [6] 1.31

B10: TEK_Y899_Y897S (peptide)
chain: HRGSLYLAIEY
inactive: [1] 0.518 | [2] 0.933 | [3] 0.951 | [4] 0.442 | [5] 0.601 | [6] 1.02

B11: TEK_Y899_Y897S_YF (peptide)
chain: HRGSLYLAIEF
inactive: [1] 0.968 | [2] 1.54 | [3] 1.38 | [4] 0.797 | [5] 0.91 | [6] 1.6

B12: TEKT1_Y118_R119M (peptide)
chain: ETCLAYMEKRI
inactive: [1] 0.875 | [2] 1.18 | [3] 0.851 | [4] 1.16 | [5] 0.961 | [6] 1.25

B13: TEKT4_Y210_D213N (peptide)
chain: DKMEAYNINET
inactive: [1] 0.426 | [2] 0.45 | [3] 0.617 | [4] 0.555 | [5] 0.484 | [6] 0.572

B14: TEKT5_Y195 (peptide)
chain: ALECLYHREKR
inactive: [1] 0.739 | [2] 0.845 | [3] 0.517 | [4] 0.592 | [5] 0.596 | [6] 1.33

B15: TEKT5_Y195_H196R (peptide)
chain: ALECLYRREKR
inactive: [1] 0.246 | [2] 0.228 | [3] 0.224 | [4] 0.181 | [5] 0.177 | [6] 0.371

B16: TENM4_Y1530_K1535Q (peptide)
chain: SGDDGYAKDAQ
inactive: [1] 0.485 | [2] 0.33 | [3] 0.451 | [4] 0.358 | [5] 0.355 | [6] 0.414

B17: TERT_Y949_S948R (peptide)
chain: SDYSRYARTSI
inactive: [1] 0.742 | [2] 0.554 | [3] 0.616 | [4] 0.484 | [5] 0.549 | [6] 0.651

B18: TERT_Y949_S948R_YF (peptide)
chain: SDFSRYARTSI
inactive: [1] 0.614 | [2] 0.448 | [3] 0.446 | [4] 0.503 | [5] 0.464 | [6] 0.528

B19: TEX37_Y25_D24N_YF (peptide)
chain: SHMVNYQPFRK
inactive: [1] 0.797 | [2] 0.672 | [3] 0.81 | [4] 0.692 | [5] 0.722 | [6] 0.698

B20: TEX45_Y396_Y396N (peptide)
chain: HLQQSNLPRGT
inactive: [1] 0.855 | [2] 1.21 | [3] 0.684 | [4] 0.725 | [5] 0.825 | [6] 0.81

B21: TF_Y593_P589S (peptide)
chain: KSVEEYANCHL
inactive: [1] 0.822 | [2] 0.864 | [3] 0.887 | [4] 0.663 | [5] 0.763 | [6] 0.954

B22: TF_Y666_G671E (peptide)
chain: HDRNTYEKYLE
inactive: [1] 0.531 | [2] 0.723 | [3] 0.643 | [4] 0.599 | [5] 0.714 | [6] 0.493

B23: TF_Y666_G671E_YF (peptide)
chain: HDRNTYEKFLE
inactive: [1] 0.826 | [2] 0.609 | [3] 0.758 | [4] 0.777 | [5] 0.62 | [6] 0.911

B24: TF_Y669 (peptide)
chain: NTYEKYLGEEY
inactive: [1] 0.887 | [2] 0.636 | [3] 0.786 | [4] 0.666 | [5] 0.807 | [6] 1.05

B25: TF_Y674 (peptide)
chain: YLGEEYVKAVG
inactive: [1] 0.814 | [2] 0.679 | [3] 0.609 | [4] 0.925 | [5] 0.631 | [6] 0.778

B26: TF_Y674_G671E_YF (peptide)
chain: FLEEEYVKAVG
inactive: [1] 0.759 | [2] 0.791 | [3] 0.965 | [4] 0.71 | [5] 0.932 | [6] 0.969

B27: TF_Y674_YF (peptide)
chain: FLGEEYVKAVG
inactive: [1] 0.867 | [2] 0.839 | [3] 0.887 | [4] 0.786 | [5] 0.819 | [6] 0.935

B28: TG_Y234 (peptide)
chain: PEVSGYCHCAD
inactive: [1] 1.09 | [2] 1.28 | [3] 0.884 | [4] 1.1 | [5] 1.1 | [6] 1.18

B29: TGDS_Y302 (peptide)
chain: TNDMRYPMKSE
inactive: [1] 0.47 | [2] 0.556 | [3] 0.692 | [4] 0.482 | [5] 0.596 | [6] 0.548

B30: TGFB1_Y81_Y81H (peptide)
chain: AVLALHNSTRD
inactive: [1] 0.885 | [2] 0.942 | [3] 0.895 | [4] 0.849 | [5] 0.753 | [6] 1.14

B31: TGFB2_Y341 (peptide)
chain: HEPKGYNANFC
inactive: [1] 0.695 | [2] 0.574 | [3] 0.67 | [4] 0.422 | [5] 0.549 | [6] 0.795

B32: TGFBI_Y537_T538R (peptide)
chain: NREGVYRVFAP
inactive: [1] 0.623 | [2] 0.644 | [3] 0.611 | [4] 0.531 | [5] 0.571 | [6] 0.778

B33: TGFBI_Y537_V539D (peptide)
chain: NREGVYTDFAP
inactive: [1] 0.774 | [2] 0.732 | [3] 0.606 | [4] 0.563 | [5] 0.766 | [6] 0.81

B34: TGM1_Y134_D132N (peptide)
chain: HHTNEYEYDEL
inactive: [1] 0.876 | [2] 0.703 | [3] 0.409 | [4] 0.941 | [5] 0.969 | [6] 0.643

B35: TGM1_Y134_D132N_YF (peptide)
chain: HHTNEYEFDEL
inactive: [1] 0.369 | [2] 0.454 | [3] 0.231 | [4] 0.566 | [5] 0.351 | [6] 0.534

B36: TGM1_Y136_YF (peptide)
chain: TDEFEYDELIV
inactive: [1] 0.321 | [2] 0.31 | [3] 0.758 | [4] 1.13 | [5] 0.478 | [6] 0.342

B37: TGM1_Y267 (peptide)
chain: DWRQEYVLNES
inactive: [1] 0.647 | [2] 0.616 | [3] 0.658 | [4] 0.542 | [5] 0.657 | [6] 0.602
